# Measurements published in the RNAGym collection of RNA variant scans (doi:10.1073/pnas.2313332121).
# Variants at the background level are over-represented here.
# B1: TPR 5TU (parent)
# chain: GGAUCUUCUCGAUCUAACAAAAAAGACAAAUCUGCCACAAAGCUUGAGAGCAUCUUCGGAUGCAGAGGCGGCAGCCUUCGGUGGCGCGAUAGCGCCAACGUUCUCAACUAUGACACGCAAAACGCGUGCUCCGUUGAAUGGAGUUUAUCAUG
# Variants of: B1
# Experiment: polymerase ribozyme fitness, log enrichment relative to wild type (log ratio); higher = more active; in vitro selection for triplet polymerase activity
# In short: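 Each subunit of a heterodimeric triplet polymerase ribozyme was represented by a PCR-built, transcribed mutant library that underwent triplicate single-round in vitro selection with frozen incubation at −7 °C. Extended constructs were recovered by gel excision, streptavidin-bead capture and RT-PCR, and Illumina sequencing of input and output libraries kept genotypes with ≥10 input reads and ≥1 read per output. Fitness is the logarithm of genotype enrichment relative to wild-type enrichment, from inverse-variance-weighted replicate averages, with a logarithm base of 2.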
row,Variant,polymerase ribozyme fitness (log ratio)
1,A39C U56A C72A A119G,≤ -4.2
2,A39C U148C,≤ -4.2
3,A39G A40G A41C G94A A119U,≤ -4.2
4,A39G A41C,-1.44
5,A39G A41C C75U G86C U104G C108A C123U,≤ -4.2
6,A39G A41G G46C C51G U56A A60C C72U A97G U111C C125A,≤ -4.2
7,A39G A41U G84A C85U A98U,≤ -4.2
8,A39G A47C,-1.49
9,A39G A47G G83A A142G,≤ -4.2
10,A39G A47U C54G C75U G92C,≤ -4.2
11,A39G A47U G83U C87A U90G,≤ -4.2
12,A39G A47U G86C,≤ -4.2
13,A39G A49C C51A A120C,≤ -4.2
14,A39G A49C U56A G94C C103A A142C,≤ -4.2
15,A39G A52G A91U,≤ -4.2
16,A39G A60G G80A C95A C114A,≤ -4.2
17,A39G A60U U78C G88A A106C U127G A147C,≤ -4.2
18,A39G A64G G80A A121C,≤ -4.2
19,A39G A64G G94C A106G U134A U135A,≤ -4.2
20,A39G A66G C85G G133A G143U U144A,≤ -4.2
21,A39G A91G,-3.4

row,Variant,polymerase ribozyme fitness (log ratio)
1,A39G A91U,≤ -4.2
2,A39G C54A A73C G80C C87G C93U C116U A121U G140C,≤ -4.2
3,A39G C54A C87A A122U C125G,≤ -4.2
4,A39G C54G G94C C105G G133C,≤ -4.2
5,A39G C54U C85U,-1.83
6,A39G C54U G68C U82C C93A G117C G133A U151A,≤ -4.2
7,A39G C75G C129U C131A U139C,≤ -4.2
8,A39G C75U C85A C93A G94A C131G G136C A138C C149U,≤ -4.2
9,A39G C75U C85A C129U A142U,≤ -4.2
10,A39G C85G A89C G92C C95U G124C,≤ -4.2
11,A39G C85G C95G G141U,≤ -4.2
12,A39G C85U U101C,-2.58
13,A39G C87G G94A U148G,≤ -4.2
14,A39G C87U,-2.33
15,A39G C99G C108U,≤ -4.2
16,A39G C103G U144A,≤ -4.2
17,A39G C108A A119G,≤ -4.2
18,A39G G42A A49C C99A A110U G133U,≤ -4.2
19,A39G G42C A64U G84C C85U C103G C108U G117C A147G,≤ -4.2
20,A39G G42C G84A C95U,≤ -4.2
21,A39G G48A U56A C76A C79U C105U,≤ -4.2

row,Variant,polymerase ribozyme fitness (log ratio)
1,A39G G50A G81C U82C G92C G140A U151C G152C,≤ -4.2
2,A39G G58U C79U U127G G133C,≤ -4.2
3,A39G G59C A89U U111G,≤ -4.2
4,A39G G59U C114G U146C U148A,≤ -4.2
5,A39G G74U G86U C99A G133A A150U,≤ -4.2
6,A39G G84U U127A,≤ -4.2
7,A39G G94A C99U A106C G128A,≤ -4.2
8,A39G U44A G84U G100C G117U,≤ -4.2
9,A39G U53A C85G A106U U144C,≤ -4.2
10,A39G U55A C75G C87U A89U C99U C116U A142U,≤ -4.2
11,A39G U55C U56A C116U U139G U144G,-2.27
12,A39G U55G U61G A91U C96G U134G G136C,≤ -4.2
13,A39G U56A C75A G84C A89G C118G U130A,≤ -4.2
14,A39G U56A U90A,≤ -4.2
15,A39G U77C C99U,≤ -4.2
16,A39G U148A U151A,≤ -4.2
17,A39U A40G A49U C57A G74C G92A C95U G100A A106C C125A,≤ -4.2
18,A39U A40G A73C G84U C125U G126C C149A,≤ -4.2
19,A39U A41C C85A A89C U90A G112U,≤ -4.2
20,A39U A41U G81U C93A U146G,≤ -4.2
21,A39U A47C U78C C93U C95G,≤ -4.2

row,Variant,polymerase ribozyme fitness (log ratio)
1,A39U A47G G62A A91U C123A,≤ -4.2
2,A39U A49C,≤ -4.2
3,A39U A49C A60C G141C,≤ -4.2
4,A39U A49C A60U G71A C76G G81A C93G C103G C108U,≤ -4.2
5,A39U A49C G62A C103G,≤ -4.2
6,A39U A49G C76G A91U C132U,≤ -4.2
7,A39U A49G G50U A52G A73U C76U G84U C116U A122U U127G,≤ -4.2
8,A39U A52C G62A C87A U127G,≤ -4.2
9,A39U A52G C76A G92C,≤ -4.2
10,A39U A52G C79G G84C C108U,≤ -4.2
11,A39U A52G U61A A73U A115U A150C,≤ -4.2
12,A39U A52G U78A G86A A91U,≤ -4.2
13,A39U A52U U61A C87A,≤ -4.2
14,A39U A60G C76G G80U A137C U151C,≤ -4.2
15,A39U A64C G65C A66G G112C C123A,≤ -4.2
16,A39U A66C C72U G86U A89U C103A C123U,≤ -4.2
17,A39U A66U G68U G94A,≤ -4.2
18,A39U A91U,≤ -4.2
19,A39U A113C,-4.11
20,A39U A119G U151G,≤ -4.2
21,A39U C43U C57G G58A G80U G94U U146G,≤ -4.2
